The text below walks through data of article PMC10726135.

Some of the results follow. At the low end of the ranking the order means little. The protein was read in a cell extract, so binding may be indirect.

The target in the assay is T1, HNF4alpha2 (COS-7 nuclear extract) (UniProt P41235).
T1 sequence: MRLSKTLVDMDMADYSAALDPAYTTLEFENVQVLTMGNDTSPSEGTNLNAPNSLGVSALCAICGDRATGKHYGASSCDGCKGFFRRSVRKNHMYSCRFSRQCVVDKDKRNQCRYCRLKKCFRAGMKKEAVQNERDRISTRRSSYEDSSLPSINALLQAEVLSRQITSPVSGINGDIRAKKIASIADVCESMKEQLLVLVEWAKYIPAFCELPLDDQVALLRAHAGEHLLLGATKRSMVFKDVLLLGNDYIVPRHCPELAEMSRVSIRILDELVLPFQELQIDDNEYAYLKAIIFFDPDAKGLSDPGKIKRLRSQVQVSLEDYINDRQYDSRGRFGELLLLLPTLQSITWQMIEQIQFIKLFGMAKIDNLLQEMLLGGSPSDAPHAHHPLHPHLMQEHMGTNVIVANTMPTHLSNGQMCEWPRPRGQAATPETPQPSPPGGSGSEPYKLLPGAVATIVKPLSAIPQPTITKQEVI
Briefly: protein-binding microarray. The note with it: COS-7 nuclear extract on double-stranded Agilent 4x180k PBM; binding buffer, salt, pH and temperature not given; high values mean tight binding; double strand, one strand shown; sequences stand for … in …GCCTAGGGAGATTAGAGTATCGGTCGA
As to TGAGAGGCCAGTTTCTCCACAGCCTCACCA, the binding signal (log2 normalized intensity) was -1.14.

For CTTAGCCAAAGAGAAGCCTAAGCAGGGCTA, the binding signal (log2 normalized intensity) was -1.11.

As for TATTTCAGCTTTGACGCCACCTGAAGGCAG, the binding signal (log2 normalized intensity) was -1.22.

For the sequence TGTCATCTAGACCTGGACTTGAAGCCAGAC, the binding signal (log2 normalized intensity) was -0.168.

For the sequence CCACACGTCCCCTTCATGTTTTCACCAAGA, the binding signal (log2 normalized intensity) stood at 0.569.

Turning to AGCAATCATATATGCATTTGTCTCAGGTGG, the binding signal (log2 normalized intensity) was determined as 1.86.

In the case of ACAACAAAGGAAATGAAGCAACACTTTCTG, the binding signal (log2 normalized intensity) is -1.08.

For GAGGTCTGGACCCTTGGCACTTTCACGATA, the binding signal (log2 normalized intensity) came out at 0.675.

As for TCAAATTACAAGGAGATATGCACTTGCCCT, the binding signal (log2 normalized intensity) is 2.16.

Regarding TCTTTGATTAGGAAAGGGAACTCCCTGACC, the binding signal (log2 normalized intensity) was -0.639.

On to GGTCTAAACCTACTTAGATCAAGATTTTCA, for which the binding signal (log2 normalized intensity) was -1.19.

On to TTGCATCAGCTGGGCTCGGCGCTCCGCTTA, for which the binding signal (log2 normalized intensity) is -1.19.

For GGATTTTGGAGCCAAACAGGTGTGGGTTCA, the binding signal (log2 normalized intensity) came to 1.92.

Take GGCAATATCTCCCAGCTGGAGTCTTCTCTA: the binding signal (log2 normalized intensity) was -1.01.

ATTTAACCTGTATTAGGAAATTGTCAGTGC: the binding signal (log2 normalized intensity) was 1.36.

As for GTGCGCTGCCCCTCACTGCCCAGCCTCTCC, the binding signal (log2 normalized intensity) was found to be 3.24.

As for GGCAAGGCCTCGTGAAAGTTAACTTTGTAA, the binding signal (log2 normalized intensity) came out at 0.851.

Take AAAGTCCAACACAGAAGCCTTTTGTTCTTT: the binding signal (log2 normalized intensity) is 1.77.

AACCTTTGCCCCCCTGGGCTCAAGCGATCC: the binding signal (log2 normalized intensity) amounted to 5.28.

For AAAACTACACTCTTGCTAAACCCTCTAACA, the binding signal (log2 normalized intensity) is -1.16.

For the sequence ACTTTGCTGTGTCCCACAGGGAAAGTATGG, the binding signal (log2 normalized intensity) turned out to be 0.199.

Regarding AAGGAGCCTAACTTTGATAGGCACAATCAG, the binding signal (log2 normalized intensity) was -1.12.

Take TATGACGGTGTATGCTCTCAGTGCTAACAC: the binding signal (log2 normalized intensity) was -0.7.

Consider TGCCCGAGCTGCCCTTTATCTCCTCTCTTC, for which the binding signal (log2 normalized intensity) stood at 1.55.

For TGTGCTGTGGCTGCCAAGACACAGAGAAAA, the binding signal (log2 normalized intensity) was -1.22.

On to TCTGCTATCTAAAAGCTTATCTGCACAATG, for which the binding signal (log2 normalized intensity) is -1.24.

Regarding TTTCTTGTCTGCCCCAGGGCTTTGCAGGGA, the binding signal (log2 normalized intensity) is 1.68.

Take AATAGAGCTCTAAACCACCCAATCCTGCAG: the binding signal (log2 normalized intensity) amounted to 1.91.

GGGGGCAGGGCTGGTCGGATGGCCGTGGGT: the binding signal (log2 normalized intensity) was -1.06.

As to CTCACTGACTTCCATCAATGAAGCATATCA, the binding signal (log2 normalized intensity) is -1.17.

In the case of TATCTTGATCAGAAAAGAAAGTGAGGAATG, the binding signal (log2 normalized intensity) is -1.16.

For the sequence CCAAAAGCTTTACTAAAACAGGGAGCAGGC, the binding signal (log2 normalized intensity) is -1.09.

In the case of AGCAAAGGGCAGATAACAAGGGCATGTAAA, the binding signal (log2 normalized intensity) is -0.955.

CAGATCCACATCGAAGGCCAAGGGATTTCA: the binding signal (log2 normalized intensity) is -1.24.

Regarding GTGGAGGGCGTGTAGGGAGTGGTTCCCACA, the binding signal (log2 normalized intensity) was -0.931.

As for CAAAGTACACTTGGAGAAAAAAAACCATTG, the binding signal (log2 normalized intensity) was -0.754.

For CTCCAAGGTACTGTGAACTCCAGCTGGGCA, the binding signal (log2 normalized intensity) was -0.764.

Consider CCAACACAGAAGCCTTTTGTTCTTTGTGTG, for which the binding signal (log2 normalized intensity) was found to be 1.42.

CAAAGGTCAACAGCCAGCCTCAAAGATCAA: the binding signal (log2 normalized intensity) is 2.58.

Regarding AATGTCAGCCTGCTCAGGGAGAAGCAAATA, the binding signal (log2 normalized intensity) is -0.932.

For ATGTGGTCCTAAGACTAACCTTTGACCATC, the binding signal (log2 normalized intensity) stood at 7.45.

Take CCTTTAGAGGGCAAGGATCAGCCCCACACT: the binding signal (log2 normalized intensity) came to 2.09.

As to AATTCCAGGATCCAAGATCCAACTCTGAAG, the binding signal (log2 normalized intensity) was -0.919.

CCCCTCCCCCACACAGACAAAGACAGAGAG: the binding signal (log2 normalized intensity) turned out to be 4.09.

Turning to GAAGATGCAACAGTGACCCAAATATGGTCC, the binding signal (log2 normalized intensity) was -0.37.

AGGTCTAAGTAAACTGTTCAAGACTTTCAG: the binding signal (log2 normalized intensity) is -0.924.

For GCTAGCTGAGAGACTTTATCCGTATAACAA, the binding signal (log2 normalized intensity) was determined as 0.102.

Turning to AAAAATGATGCCTGACTCAAGAAAGGATCT, the binding signal (log2 normalized intensity) was -0.989.

With GATCTGCAGGTAGGGGTGGGATGGGGAGCA, the binding signal (log2 normalized intensity) is -1.11.

As for GTGGGTTCTAGGTAATCACCCTCTCCACCC, the binding signal (log2 normalized intensity) turned out to be 1.56.

For TTTCAACATCCTCTCAGGTCAAAGTTTGCC, the binding signal (log2 normalized intensity) stood at 2.93.

For TTTTTTTTAACGGTCTGCCCTCTTGTCCTT, the binding signal (log2 normalized intensity) worked out at 3.57.

Consider CTGCTGGGAGTTGTAGTTTTTTGGGCCCCT, for which the binding signal (log2 normalized intensity) worked out at 1.36.

On to CACTACTCCAGGGAGAAACCTGCCAGGTGG, for which the binding signal (log2 normalized intensity) was -1.1.

Regarding ACGTTTCTGTGGTCAGGGCCTTTCCAGCAA, the binding signal (log2 normalized intensity) was -0.905.

Consider AAACAGATGTTGGTGGGAGGATTTCTTCAT, for which the binding signal (log2 normalized intensity) is -1.15.

As to CGGTTTTAGGACAACATGAGTAAACGAGCT, the binding signal (log2 normalized intensity) is -1.21.

With AAAAAGCTCTGCCTACGCATGCATTCCAGT, the binding signal (log2 normalized intensity) was -1.14.

For the sequence CCTCAGCCGGGAGAGGAGGCCCCCTGAGGC, the binding signal (log2 normalized intensity) was 1.15.

As to TTCACTTCCCTATCCCGCTGCTTCCACCAG, the binding signal (log2 normalized intensity) is -1.19.

With AGATGATGAGGCGGTTCATCCAACAGGTGA, the binding signal (log2 normalized intensity) was -0.966.

With TGGGGATCAAAGCGTATGGGAGGGCTATTT, the binding signal (log2 normalized intensity) is -1.15.

As to ACTCCTACAATTGCTGGTCCCTTTCAAAAC, the binding signal (log2 normalized intensity) came out at 0.44.

For CCTCCTGCTGCAGCTCTGGGCCCCTCGGCC, the binding signal (log2 normalized intensity) is -1.19.

In the case of GTTTCTCAAGTGATCGAAGGTCAACTTATC, the binding signal (log2 normalized intensity) was found to be 3.91.

As to CAAAGTCCCCTGAGCTTGAGTCCATCCCAT, the binding signal (log2 normalized intensity) is 1.91.

Take GGTTAATGATTATGCCTCTGTGACCTATAA: the binding signal (log2 normalized intensity) stood at 2.4.

With AACTCAGGGTCTGGTTCCAAAGTCTGCAGA, the binding signal (log2 normalized intensity) was determined as 2.77.

On to TTCCATTGAAGCAGAGTGTCCCATATCACA, for which the binding signal (log2 normalized intensity) was found to be 0.724.

As to TCTTGGCTTCTCTTGGACCTCAATGTGCTC, the binding signal (log2 normalized intensity) was 1.99.

Turning to TGTAGCTAAAATGTTAATGATTACTAGAGA, the binding signal (log2 normalized intensity) is -0.00115.

For the sequence CCCACAAAGCCTAAAATATTCACTATCTGA, the binding signal (log2 normalized intensity) was -1.16.
